The other results are listed elsewhere or left out. The full chains were built here from the parent and the listed change. Inactive controls read about 0.05.
B1: TEV protease; numbered along this chain (parent)
chain: MGESLFKGPRDYNPISSSICHLTNESDGHTTSLYGIGFGPFIITNKHLFRRNNGTLVVQSLHGVFKVKDTTTLQQHLVDGRDMIIIRMPKDFPPFPQKLKFREPQREERICLVTTNFQTKSMSSMVSDTSCTFPSGDGIFWKHWIQTKDGQCGSPLVSTRDGFIVGIHSASNFTNTNNYFTSVPKNFMELLTNQEAQQWVSGWRLNADSVLWGGHKVFMVKPEEPFQPVKEATQL

Variants of: B1
Assay: raw area under fraction-flipped curve 0-4 h after induction (AUC4h, not background-subtracted), DNA-recorder readout of cleavage of the substrate (dimensionless); higher = more cleavage of the substrate by the protease variant
Details: temperature: 34 °C; time window: 0-4 h after rhamnose induction
Protocol: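 In vivo DNA recorder in E. coli TOP10(DE3) ΔrhaA at 34 °C. Each TEVp single-site mutant (parent TEVp 0) is paired with a single-site variant of the 7-mer TEVs (canonical ENLYFQ|S). The substrate sits between flexible linkers in a Bxb1-sfGFP-TEVs-SsrA fusion, so cleavage stabilises Bxb1 and speeds flipping of a recombination array, read by NGS. The value is the raw area under the fraction-flipped curve over 0-4 h after rhamnose induction (AUC4h), with ≥20 reads per time point. It is not background-subtracted; inactive controls average about 0.047.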
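Note: Bxb1 expression induced with 0.2% (w/v) L-rhamnose at OD600 near 0.5, cultures sampled hourly, flipped fraction per protease–substrate barcode pair counted by paired-end Illumina sequencing.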

| Variant | area with substrate ENLAFQS | area with substrate ENLCFQS | area with substrate ENLEFQS | area with substrate ENLFFQS | area with substrate ENLHFQS | area with substrate ENLLFQS | area with substrate ENLMFQS | area with substrate ENLNFQS | area with substrate ENLPFQS | area with substrate ENLRFQS | area with substrate ENLVFQS | area with substrate ENLWFQS | area with substrate ENLDFQS | area with substrate ENLIFQS | area with substrate ENLKFQS | area with substrate ENLSFQS | area with substrate ENLGFQS |
| --- | --- | --- | --- | --- | --- | --- | --- | --- | --- | --- | --- | --- | --- | --- | --- | --- | --- |
| MGESLFKGPRDYNPISSSICHLTNESDGHTTSLYGIGFGPFIITNKHLFRRNNGTLVVQSLHGVFKVKDTTTLQQHLVDGRDMIIISMPKDFPPFPQKLKFREPQREERICLVTTNFQTKSMSSMVSDTSCTFPSGDGIFWKHWIQTKDGQCGSPLVSTRDGFIVGIHSASNFTNTNNYFTSVPKNFMELLTNQEAQQWVSGWRLNADSVLWGGHKVFMVKPEEPFQPVKEATQL [R87S] | 0.0659 | 0.0605 | 0.0732 | 0.0844 | 0.0559 | 0.0618 | 0.0759 | 0.0672 | 0.0499 | 0.0684 | 0.0665 | 0.0577 | – | – | – | – | – |
| MGESLFKGPRDYNPISSSICHLTNESDGHTTSLYGIGFGPFIITNKHLFRRNNGTLVVQSLHGVFKVKDTTTLQQHLVDGRDMIIIRMMKDFPPFPQKLKFREPQREERICLVTTNFQTKSMSSMVSDTSCTFPSGDGIFWKHWIQTKDGQCGSPLVSTRDGFIVGIHSASNFTNTNNYFTSVPKNFMELLTNQEAQQWVSGWRLNADSVLWGGHKVFMVKPEEPFQPVKEATQL [P89M] | 0.0521 | – | – | 0.0653 | 0.0517 | 0.0703 | – | 0.0353 | 0.0454 | – | – | 0.0539 | 0.0615 | 0.0703 | 0.0673 | 0.0499 | – |
| MGESLFKGPRDYNPISSSICHLTNESDGHTTSLYGIGFGPFIITNKHLFRRNNGTLVVQSLHGVFKVKDTTTLQQHLVDGRDMIIIRMQKDFPPFPQKLKFREPQREERICLVTTNFQTKSMSSMVSDTSCTFPSGDGIFWKHWIQTKDGQCGSPLVSTRDGFIVGIHSASNFTNTNNYFTSVPKNFMELLTNQEAQQWVSGWRLNADSVLWGGHKVFMVKPEEPFQPVKEATQL [P89Q] | 0.0632 | – | 0.0628 | 0.0949 | 0.0777 | 0.0679 | – | 0.0648 | 0.056 | 0.0435 | – | 0.073 | 0.0348 | – | 0.0653 | – | 0.0612 |
| MGESLFKGPRDYNPISSSICHLTNESDGHTTSLYGIGFGPFIITNKHLFRRNNGTLVVQSLHGVFKVKDTTTLQQHLVDGRDMIIIRMPRDFPPFPQKLKFREPQREERICLVTTNFQTKSMSSMVSDTSCTFPSGDGIFWKHWIQTKDGQCGSPLVSTRDGFIVGIHSASNFTNTNNYFTSVPKNFMELLTNQEAQQWVSGWRLNADSVLWGGHKVFMVKPEEPFQPVKEATQL [K90R] | 0.143 | – | – | – | – | – | – | 0.0709 | 0.0511 | 0.058 | – | – | – | – | – | – | – |
| MGESLFKGPRDYNPISSSICHLTNESDGHTTSLYGIGFGPFIITNKHLFRRNNGTLVVQSLHGVFKVKDTTTLQQHLVDGRDMIIIRMPSDFPPFPQKLKFREPQREERICLVTTNFQTKSMSSMVSDTSCTFPSGDGIFWKHWIQTKDGQCGSPLVSTRDGFIVGIHSASNFTNTNNYFTSVPKNFMELLTNQEAQQWVSGWRLNADSVLWGGHKVFMVKPEEPFQPVKEATQL [K90S] | 0.0555 | – | – | 0.0765 | – | – | 0.0788 | – | – | – | 0.0765 | 0.0668 | 0.0469 | – | 0.0753 | 0.0684 | – |
